# Measured values published in the supplement of paper PMC8728848.
# The list shows a part of the results.
# Tests used:
# Assay in all cases: glycan array binding signal (z-score within array); higher = stronger binding
# Settings in all cases: glycan notation: IUPAC condensed, linker removed
# Fuc(a1-2)Gal = target: Fuc(a1-2)Gal
# Outline: (§1)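 The binding signal is a Z-score computed within each array and averaged over linkers. Arrays of the same protein sequence at different concentrations or buffers were also averaged together. Data originate from 3228 arrays in the Consortium for Functional Glycomics database, kept only where the protein sequence was available.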
# Fuc(a1-2)Gal(b1-3)GalNAc = target: Fuc(a1-2)Gal(b1-3)GalNAc
# Outline: as §1
# [1] = target: Fuc(a1-2)Gal(b1-3)GalNAc(a1-3)[Fuc(a1-2)]Gal(b1-4)Glc
# Outline: as §1
# [2] = target: Fuc(a1-2)Gal(b1-3)GalNAc(a1-3)[Fuc(a1-2)]Gal(b1-4)GlcNAc
# Outline: as §1
# [3] = target: Fuc(a1-2)Gal(b1-3)GalNAc(b1-3)Gal
# Outline: as §1
# [4] = target: Fuc(a1-2)Gal(b1-3)GalNAc(b1-3)Gal(a1-4)Gal(b1-4)Glc
# Outline: as §1
# [5] = target: Fuc(a1-2)Gal(b1-3)GalNAc(b1-4)[Neu5Ac(a2-3)]Gal(b1-4)Glc
# Outline: as §1
# Fuc(a1-2)Gal(b1-3)GlcNAc = target: Fuc(a1-2)Gal(b1-3)GlcNAc
# Outline: as §1
# [6] = target: Fuc(a1-2)Gal(b1-3)GlcNAc(b1-2)Man(a1-3)[Fuc(a1-2)Gal(b1-3)GlcNAc(b1-2)Man(a1-6)]Man(b1-4)GlcNAc(b1-4)GlcNAc
# Outline: as §1
# [7] = target: Fuc(a1-2)Gal(b1-3)GlcNAc(b1-2)Man(a1-3)[Fuc(a1-2)Gal(b1-3)GlcNAc(b1-2)Man(a1-6)]Man(b1-4)GlcNAc(b1-4)[Fuc(a1-6)]GlcNAc
# Outline: as §1
# [8] = target: Fuc(a1-2)Gal(b1-3)GlcNAc(b1-3)Gal(b1-4)Glc
# Outline: as §1
# [9] = target: Fuc(a1-2)Gal(b1-3)GlcNAc(b1-3)GalNAc
# Outline: as §1
# [10] = target: Fuc(a1-2)Gal(b1-3)GlcNAc(b1-3)[Fuc(a1-2)Gal(b1-3)GlcNAc(b1-6)]GalNAc
# Outline: as §1
# [11] = target: Fuc(a1-2)Gal(b1-3)GlcNAc(b1-3)[Fuc(a1-3)[Gal(b1-4)]GlcNAc(b1-6)]Gal(b1-4)Glc
# Outline: as §1
# [12] = target: Fuc(a1-2)Gal(b1-3)GlcNAc(b1-3)[Gal(b1-4)GlcNAc(b1-6)]Gal(b1-4)Glc
# Outline: as §1
# [13] = target: Fuc(a1-2)Gal(b1-3)GlcNAc(b1-3)[Neu5Ac(a2-6)Gal(b1-4)GlcNAc(b1-6)]Gal(b1-4)Glc
# Outline: as §1
# [14] = target: Fuc(a1-2)Gal(b1-3)GlcNAc6S
# Outline: as §1
# [15] = target: Fuc(a1-2)Gal(b1-3)[Fuc(a1-4)]GlcNAc
# Outline: as §1
# [16] = target: Fuc(a1-2)Gal(b1-3)[Fuc(a1-4)]GlcNAc(b1-2)Man(a1-3)[Fuc(a1-2)Gal(b1-3)[Fuc(a1-4)]GlcNAc(b1-2)Man(a1-6)]Man(b1-4)GlcNAc(b1-4)GlcNAc
# Outline: as §1
# [17] = target: Fuc(a1-2)Gal(b1-3)[Fuc(a1-4)]GlcNAc(b1-2)Man(a1-6)[Fuc(a1-2)Gal(b1-3)[Fuc(a1-4)]GlcNAc(b1-2)Man(a1-3)]Man(b1-4)GlcNAc(b1-4)[Fuc(a1-6)]GlcNAc
# Outline: as §1
# [18] = target: Fuc(a1-2)Gal(b1-3)[Fuc(a1-4)]GlcNAc(b1-3)[Fuc(a1-3)[Gal(b1-4)]GlcNAc(b1-6)]Gal(b1-4)Glc
# Outline: as §1
# [19] = target: Fuc(a1-2)Gal(b1-3)[Fuc(a1-4)]GlcNAc(b1-3)[Gal(b1-4)GlcNAc(b1-6)]Gal(b1-4)Glc
# Outline: as §1
# Fuc(a1-2)Gal(b1-4)Glc = target: Fuc(a1-2)Gal(b1-4)Glc
# Outline: as §1
# Fuc(a1-2)Gal(b1-4)Glc6S = target: Fuc(a1-2)Gal(b1-4)Glc6S
# Outline: as §1
# Fuc(a1-2)Gal(b1-4)GlcNAc = target: Fuc(a1-2)Gal(b1-4)GlcNAc
# Outline: as §1
# [20] = target: Fuc(a1-2)Gal(b1-4)GlcNAc(b1-2)Man
# Outline: as §1
# [21] = target: Fuc(a1-2)Gal(b1-4)GlcNAc(b1-2)Man(a1-3)[Fuc(a1-2)Gal(b1-4)GlcNAc(b1-2)Man(a1-6)]Man(b1-4)GlcNAc(b1-4)GlcNAc
# Outline: as §1
# [22] = target: Fuc(a1-2)Gal(b1-4)GlcNAc(b1-2)Man(a1-3)[Fuc(a1-2)Gal(b1-4)GlcNAc(b1-2)Man(a1-6)]Man(b1-4)GlcNAc(b1-4)[Fuc(a1-6)]GlcNAc
# Outline: as §1
# [23] = target: Fuc(a1-2)Gal(b1-4)GlcNAc(b1-2)[Fuc(a1-2)Gal(b1-4)GlcNAc(b1-4)]Man(a1-3)[Fuc(a1-2)Gal(b1-4)GlcNAc(b1-2)Man(a1-6)]Man(b1-4)GlcNAc(b1-4)GlcNAc
# Outline: as §1
# [24] = target: Fuc(a1-2)Gal(b1-4)GlcNAc(b1-3)Gal(b1-4)GlcNAc
# Outline: as §1
binder,measurement,setting,value
"PitA (Streptococcus oralis), G3F8D8 (protein) MNIRFDFKKVQIIARRLVTLLAILFLCAPISLLNADSTTEPQTTLHKTITPISGQDDKYELSLDITSKLGTETQTDPLDVVLVADLSGSMQNQDVQSFDGRTISRIDALKNTLRGTNGRKGLIDTILSNSNNRLSMVGFGGKIDNKKVDQYWDGNKWRLFRPYWPYERMTKYYDGVSPWDDANTILGWSNNARAAKTAVYNMSIAGGNSIGTESGIGTGTNIGAGLTLANQLMGSARSNAKKVVILLSDGFANMVYDANGYTIYNYNNEDPNIETAPQWFWDRLNNNLNSLSYSLAPTLDGFYSIKFRYSNNVDSITSLQYYMRQHNASIPNEIFSANDEDQLRDSFKDITDKILPLGIHHVSIKDVLSKYVQLLPNGSSEFRVVKEKDGSSEILIENQVTFDTKTTSEGLVEVTAKFSPNYSLEDGARYVLKFTVTSSQEALDAIAGDKKLEAGDAEGSDVNKLYSNKGASVTYSYGIGNSQTKTKEYSDNPTFKPSDPLTVPVEVEWQGVTGARTVITADQPSNVELKLVQKNKNGGSDNQDYRKTNVNVSKNVSNETRNFEKVAKGYQYDLIAPDVPAFTKEIKNVGTESKPSFKVIYKQLPSLTIKKVLEAENNLNKEFRIKVKLTSPDSKPLNGTFGEITVVNGEAEIRVEKRKRWEGILSYLPRGTHYKVEEEAASTNGYHVTYENQEGDLNKDETSIVTNHKLPSLSVTKKVTGVFANLLKSFKITINIRDAQNSPLNGTYTATVNNKRTPLQFTNGRASIDLNKDQTIKIYGLPLDSHYTVEEESNSSRGYQVSYENQEGKLDGDKSATVTNNKNSVPETGVDFLSSTLMLGIILPLGGIFFTILLGYLVVHRRK",glycan array binding signal (z-score),Fuc(a1-2)Gal,-0.413
same,glycan array binding signal (z-score),Fuc(a1-2)Gal(b1-3)GalNAc,-0.353
same,glycan array binding signal (z-score),[1],0.693
same,glycan array binding signal (z-score),[2],-0.581
same,glycan array binding signal (z-score),[3],10.3
same,glycan array binding signal (z-score),[4],0.526
same,glycan array binding signal (z-score),[5],-0.333
same,glycan array binding signal (z-score),Fuc(a1-2)Gal(b1-3)GlcNAc,-0.638
same,glycan array binding signal (z-score),[6],0.06
same,glycan array binding signal (z-score),[7],1.39
same,glycan array binding signal (z-score),[8],-0.345
same,glycan array binding signal (z-score),[9],-0.459
same,glycan array binding signal (z-score),[10],0.672
same,glycan array binding signal (z-score),[11],-0.254
same,glycan array binding signal (z-score),[12],-0.458
same,glycan array binding signal (z-score),[13],-0.587
same,glycan array binding signal (z-score),[14],-0.05
same,glycan array binding signal (z-score),[15],-0.238
same,glycan array binding signal (z-score),[16],-0.211
same,glycan array binding signal (z-score),[17],2.26
same,glycan array binding signal (z-score),[18],-0.688
same,glycan array binding signal (z-score),[19],-0.491
same,glycan array binding signal (z-score),Fuc(a1-2)Gal(b1-4)Glc,-0.507
same,glycan array binding signal (z-score),Fuc(a1-2)Gal(b1-4)Glc6S,-0.326
same,glycan array binding signal (z-score),Fuc(a1-2)Gal(b1-4)GlcNAc,-0.676
same,glycan array binding signal (z-score),[20],-0.365
same,glycan array binding signal (z-score),[21],0.147
same,glycan array binding signal (z-score),[22],1.5
same,glycan array binding signal (z-score),[23],2.11
same,glycan array binding signal (z-score),[24],-0.256
